Laboratory results: PubChem BioAssay AID1346428 (National Center for Advancing Translational Sciences (NCATS), 2018)
The whole screen tested about 48,000 compounds, of which about 1,200 (2.5%) were called active. Another 2% or so got no clear call; they are omitted.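 How the source made its calls: active means activation of at least 60% and not above a set upper limit (about 1 call in 100 departs from these limits); inconclusive means activation of 40% to 60%, or above that upper limit; inactive means activation under 40%.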 This is one part of the list.

Biological target: Probable G-protein coupled receptor 32 (Homo sapiens) (UniProt O75388)
UniProt O75388, sequence (O75388 whole entry, looked up): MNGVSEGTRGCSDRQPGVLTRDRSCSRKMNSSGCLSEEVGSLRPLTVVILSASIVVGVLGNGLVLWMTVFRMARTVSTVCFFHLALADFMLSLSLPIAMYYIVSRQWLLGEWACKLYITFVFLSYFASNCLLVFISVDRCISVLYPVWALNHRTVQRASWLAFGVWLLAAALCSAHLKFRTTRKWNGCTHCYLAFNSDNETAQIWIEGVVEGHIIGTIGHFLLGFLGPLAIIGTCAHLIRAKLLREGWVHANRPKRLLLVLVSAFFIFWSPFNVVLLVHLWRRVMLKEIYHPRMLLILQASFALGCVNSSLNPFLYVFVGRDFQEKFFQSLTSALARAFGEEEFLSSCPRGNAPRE
Assay: qHTS for Agonists of Human Resolvin D1 Receptor DRV1; further: 0% is about no effect
Conditions: CHO-K1 GPR32 beta-arrestin PathHunter luminescence, 90 min; at 76.9 µM; hits give high values; zero percent set by DMSO-only wells
Outline: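 Cells are plated overnight, treated with compounds in DMSO for 90 minutes at 37 °C, and developed with PathHunter detection reagent for 1 hour before luminescence is read; signal reflects beta-arrestin binding to GPR32 in engineered CHO-K1 cells.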

activation, inactive:
CCOc1ccc(N(C)S(=O)(=O)c2c(C(=O)N3CCC(C)CC3)c(C)n(C)c2C)cc1 -21.5%, CCOc1ccccc1NC(=O)N1c2ccccc2Sc2ccccc21 -17.4%, COc1ccc(Cn2c(CCC(=O)Nc3ccc(C)cc3)nc3cccnc32)cc1 -7.5%, Cc1ccc(NC(=O)Cn2nnc3sc4c(c3c2=O)CCC(C)C4)cc1 (configuration not stated) -6.06%, Cc1ccc(C2CCN(C(=O)Nc3ccc(Cl)cc3)C2)cc1 (configuration not stated) 5.88%, Cc1c(Cl)cccc1NC(=O)CNS(=O)(=O)c1cccs1 -4.64%, Cc1nc2sccn2c(=O)c1S(=O)(=O)Nc1ccc(N2CCOCC2)cc1 -16%, Cc1cc(=O)[nH]c2nnc(SCc3c(F)cccc3Cl)n12 2.39%, CCOC(=O)CCn1cnc2onc(-c3cc(OC)ccc3Cl)c2c1=O -0.14%, Cc1ccc(OCc2nc(-c3ccc(C(=O)N4CCN(c5cccc(C(F)(F)F)c5)CC4)cc3)oc2C)cc1 -7.48%, CCOc1ccc2c(c1)sc1nc(=O)n(-c3ccc(Cl)c(Cl)c3)c(=O)n12 12.8%, CCCCCCCCCCCCCCC[C@H](O)[C@@H](N)CO -6.9%, CSc1cccc(NC(=O)C2CCN(S(=O)(=O)c3ccc4c(c3)CCCN4C(=O)C3CCC3)CC2)c1 -15.2%, COc1ccc(N(CC(C)C)S(=O)(=O)c2nnc(NC(=O)c3cccs3)s2)cc1 29%, O=C(Nc1ccc2nc(SCC(=O)N3CCc4ccccc43)sc2c1)c1cccc(F)c1 4.12%, COc1ccc(Cl)cc1NC(=O)CSc1nc2ccccc2c2nc(-c3ccccc3)nn12 -9.85%, Cc1cccc(NC(=O)c2ccc3c(O)c(S(=O)(=O)c4ccccc4)c(=O)[nH]c3c2)c1C -7.64%, Cc1ccc(C(=O)N2CCc3cc(CNC(=O)c4ccc(Br)cc4)ccc32)cc1 -35%, O=S(=O)(c1ccc(-c2cc(C(F)(F)F)on2)s1)N1CCN(c2ccccc2)CC1 -10.6%, CS(=O)(=O)NCC(c1ccco1)N1CCN(c2ccc(F)cc2)CC1 (configuration not stated) -16.8%, COCCNC(=O)CCn1c(=O)c2cc(OC)c(OC)cc2n(CC(=O)Nc2ccccc2C)c1=O -1.91%, Cc1cccc(C)c1NC(=O)C(=O)NCC(c1ccc2c(c1)OCO2)N1CCOCC1 (configuration not stated) -10.3%, CCOC(=O)c1cnc2c(Cl)cc(Cl)cc2c1Nc1cc(C(=O)O)ccc1C 12.5%, COc1ccc(S(=O)(=O)N2CCN(Cc3ccc4c(c3)OCO4)CC2)cc1C -20.3%, O=C(NCc1ccccc1Cl)c1cnc(N2CCOCC2)c2ccccc12 -14.9%, Cc1ccc(-c2cc(-c3coc4ccc(Cl)cc4c3=O)c3c(n2)-c2ccccc2OC3)cc1 0.649%, CCN(Cc1ccccc1)Cc1c(O)ccc2c(=O)c(-c3ccc(Cl)cc3)coc12 -20.8%, Cc1ccc(C)c(N2CCN(C(=O)CCNS(=O)(=O)c3ccc4c(c3)CCN4C(=O)C3CC3)CC2)c1 48.7%, O=C(C1CCC(Cn2c(=O)c3sccc3n(Cc3ccccc3)c2=O)CC1)N1CCCCC1 (configuration not stated) -10.8%, Cc1ccc2cccc(NC(=O)c3cccc4c(Cl)cccc34)c2n1 -9.81%, CCOc1ccc(NC(=O)CCc2nc3cccnc3n2-c2ccccc2)cc1 8.94%, COc1ccc(OC)c(NC(=O)CC2C(=O)NCCN2C(=O)C(F)(F)F)c1 (configuration not stated) -0.843%, Cc1ccc(NC(=O)c2oc3ccccc3c2NC(=O)c2ccc(F)c(F)c2)cc1 -2.02%, COc1ccc(S(=O)(=O)NCCS(=O)(=O)N2CCN(c3ccccc3)CC2)cc1OC -7%, COc1ccc2c(c1)c(CC(=O)Nc1ccc(C(C)=O)cc1)c(C)n2C(=O)c1ccc(Cl)cc1 -23.3%, COc1ccc(NC(=O)c2oc3ccccc3c2NC(=O)C23CC4CC(CC(C4)C2)C3)c(OC)c1 0.982%, O=C(Nc1nc2ccc(Cl)cc2s1)c1cc(=O)c2ccccc2o1 6.33%, CCc1cccc(CC)c1NC(=O)C(Cc1ccccc1)NS(=O)(=O)c1cccc2nsnc12 (configuration not stated) -32.8%, CCc1ccc(NC(=O)CSc2nc3c(oc4ccccc43)c(=O)n2-c2cccc(C)c2)cc1 -18.9%, CCc1cnc2c(c1SCc1ccccc1C)c(=O)n(C)c(=O)n2C -6.65%, CC(C)CN(CCCNC(=O)c1cc(=O)[nH]c2ccc(S(=O)(=O)N3CCCC3)cc12)CC(C)C -22.6%, Cc1ccc(CNC(=O)CCCCCn2c(=O)c3sccc3n(CC(=O)Nc3ccc(C)c(F)c3)c2=O)cc1 2.52%, CCN1C(C(=O)c2ccccc2)=C(OC(=O)COc2ccc(OC)cc2)c2ccccc2S1(=O)=O -71.3%, COc1cccc(C(=O)NC(=NCCc2c[nH]c3ccc(OC)cc23)Nc2nc(C)cc(C)n2)c1 -2.13%, CN1CCc2c(sc(NC(=O)CSc3ccc(F)cc3)c2-c2nc3ccccc3s2)C1 -22.7%, CC(C)CCNS(=O)(=O)c1ccc(N2CCCCS2(=O)=O)cc1 10.3%, CCOc1ccc(C(=O)c2cn(CC(=O)Nc3ccc4c(c3)OCCO4)c3ccc(F)cc3c2=O)cc1 38.2%, COc1ccc(NC(=O)Cn2c(=O)c3cc(Cl)ccc3n3nncc23)cc1 -19%, CC1(C)OC[C@@H]2O[C@@]3(C(=O)O)OC(C)(C)O[C@H]3[C@@H]2O1 26.1%, COC(=O)CN1C(=O)CSc2ccc(S(=O)(=O)Nc3ccc(C(C)=O)cc3)cc21 -10.3%, Cc1cccc(C)c1OC(=O)CSc1nnc(CNC(=O)c2ccccc2)o1 -14.8%, CN(C(=O)CSc1nc(C2CCCC2)nc2c1c(=O)n(C)c(=O)n2C)c1ccccc1 -21.2%, CC1CCN(C(=O)CSc2nnc(-c3ccccc3)o2)CC1 -8.1%, COCCCNC(=O)CSc1nc2cc3c(cc2c(=O)n1CCCCCC(=O)NCc1ccc(OC)cc1)OCO3 -9.21%, CC(C)COC(=O)Cn1nnc2sc(-c3ccccc3)cc2c1=O 26.2%, COc1ccc(-n2nnc(-c3nsc(NC(=O)c4ccc(C)c(C)c4)n3)c2C)cc1Cl 13.1%, O=C(CSc1oc(-c2ccccc2)nc1S(=O)(=O)c1ccc(Cl)cc1)NC1CCCCC1 -6.59%, CCCc1nnc(NC(=O)Cc2coc3ccc(C(C)C)cc23)s1 -13.8%, O=C(CN1CCCN(S(=O)(=O)c2ccc(Br)cc2)CC1)Nc1cccc(C(F)(F)F)c1 -2.68%, CC1CCN(C(=O)c2ccc3c(c2)N(Cc2ccccc2)C(=O)c2ccccc2S3(=O)=O)CC1 -28.4%, Cc1ccc(NC(=O)c2cnc(SCC(=O)N3CCOCC3)n(C)c2=O)cc1C -3.29%, Cc1cc(C)c(NS(=O)(=O)c2cc(-c3onc(C)c3C)ccc2C)c(C)c1 -16.9%, COc1ccccc1-c1noc(-c2ccc(NCc3ccco3)c([N+](=O)[O-])c2)n1 -22.9%, O=C(Nc1cccc(C(F)(F)F)c1)c1cc(S(=O)(=O)N2CCCC2)c[nH]1 3.9%, Cc1cccc(N2CCN(C(=O)c3ccc4c(Cl)c5c(nc4c3)CCCC5)CC2C)c1 (configuration not stated) 0.471%, COc1ccc(NC(=O)Cn2nnc(C(=O)NCc3ccc4c(c3)OCO4)c2N)cc1 -9.86%, Cc1ccc(CCNC(=O)c2ccc3c(c2)nc2n3CCCCC2)cc1 -14%, O=C(CN1C(=O)COc2ccc(Cl)cc21)Nc1cccc(F)c1 -13%, COC(=O)CNC(=O)C1CCN(S(=O)(=O)c2cccc3nsnc23)CC1 1.91%, Cc1ccc(C(=O)c2c(N)c(C(=O)Nc3ccccc3Cl)c3ccccn23)cc1 12.2%, CCOc1ccc(OCC(=O)NCCS(=O)(=O)N2CCN(c3ccccc3F)CC2)cc1 -8.56%, COc1ccc(S(=O)(=O)Nc2ccc(-c3ccc(N4CCCC4)nn3)cc2)cc1F 15.1%, Cc1sc2ncn(CC(=O)Nc3cccc(C(F)(F)F)c3)c(=O)c2c1S(=O)(=O)N1CCN(C)CC1 8.98%, CN(c1ccc(F)cc1)S(=O)(=O)N1CCCC(C(=O)NCc2cccc(Br)c2)C1 (configuration not stated) -7.82%, Cc1ccccc1Cc1c(C)nc2nc(SCC(=O)N(C)c3ccccc3)nn2c1C -32.3%, Cc1c(C(=O)N2CCC(C)CC2)c(S(=O)(=O)NCc2ccc(Cl)cc2)c(C)n1C -12%, COc1cc2c(Nc3ccc(Br)cc3F)ncnc2cc1OCC1CCN(C)CC1 -3.97%, CC1=C(C(=O)Nc2ccc(C)cc2C)C(c2ccc([N+](=O)[O-])cc2)n2ncc(C(=O)Nc3ccc(F)cc3)c2N1 (configuration not stated) -13.7%, Cc1ccc(-n2c(=O)c3c(cnn3C)n(CC(=O)Nc3ccc(C)cc3C)c2=O)cc1 -28.1%, CC(=O)c1ccc(N2CCN(C(=O)CCC(=O)Nc3ccc4nc(N5CCCCC5)cc(C)c4c3)CC2)cc1 18.3%, CCN(CC)c1ccc2cc(-c3nc(-c4cccs4)no3)c(=O)oc2c1 8.2%, COc1ccc(S(=O)(=O)NCCc2csc3nc(-c4cccc(C)c4)nn23)cc1F 20.4%
